# Laboratory results taken from the supplement of paper PMC8728848.
# This is one part of the list.
# B1: Morniga (Morus nigra) (protein)
# chain: MAGTSTNTQTTGTSQTVEVGLWGGPGGNAWDDGSYTGIREINLSHGDAIGAFSVIYDLNGQPFTGPTHPGNEPSFKTVKITLDFPNEFLVSVSGYTGVLPRLATGKDVIRSLTFKTNKKTYGPYGKEEGTPFSLPIENGLIVGFKGRSGFVVDAIGVHLS
# Legend:
# Assay in all cases: glycan array binding signal (z-score within array); higher = stronger binding
# Conditions in all cases: glycan notation: IUPAC condensed, linker removed
# [1] = target: Man(a1-3)[Man(a1-6)]Man(a1-6)[Man(a1-3)]Man
# In short: (§1)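 Glycan array binding is given as a within-array Z-score, which can be read as non-binding when negative. The arrays, 3228 of them, came from the Consortium for Functional Glycomics database and were retained only where the protein sequence was available. Z-scores were averaged across arrays of the same protein sequence at different concentrations or buffers and across linkers.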
# [2] = target: Man(a1-3)[Man(a1-6)]Man(a1-6)[Man(a1-3)]Man(b1-4)GlcNAc(b1-4)GlcNAc
# In short: as §1
# [3] = target: Man(a1-3)[Man(a1-6)]Man(b1-4)GlcNAc(b1-4)GlcNAc
# In short: as §1
# [4] = target: Man(a1-3)[Man(a1-6)]Man(b1-4)GlcNAc(b1-4)[Fuc(a1-6)]GlcNAc
# In short: as §1
# Man(a1-6)Man = target: Man(a1-6)Man
# In short: as §1
# Man(b1-4)GlcNAc = target: Man(b1-4)GlcNAc
# In short: as §1
# Neu5Ac(a2-3)Gal = target: Neu5Ac(a2-3)Gal
# In short: as §1
# [5] = target: Neu5Ac(a2-3)Gal(b1-3)GalNAc
# In short: as §1
# [6] = target: Neu5Ac(a2-3)Gal(b1-3)GalNAc(b1-3)Gal(a1-4)Gal(b1-4)Glc
# In short: as §1
# [7] = target: Neu5Ac(a2-3)Gal(b1-3)GalNAc(b1-4)[Neu5Ac(a2-3)]Gal(b1-4)Glc
# In short: as §1
# [8] = target: Neu5Ac(a2-3)Gal(b1-3)GalNAc(b1-4)[Neu5Ac(a2-8)Neu5Ac(a2-3)]Gal(b1-4)Glc
# In short: as §1
# [9] = target: Neu5Ac(a2-3)Gal(b1-3)GalNAc6S
# In short: as §1
# [10] = target: Neu5Ac(a2-3)Gal(b1-3)GlcNAc
# In short: as §1
# [11] = target: Neu5Ac(a2-3)Gal(b1-3)GlcNAc(b1-2)Man(a1-3)[GlcNAc(b1-4)][Neu5Ac(a2-3)Gal(b1-3)GlcNAc(b1-2)Man(a1-6)]Man(b1-4)GlcNAc(b1-4)GlcNAc
# In short: as §1
# [12] = target: Neu5Ac(a2-3)Gal(b1-3)GlcNAc(b1-3)Gal(b1-3)GlcNAc
# In short: as §1
# [13] = target: Neu5Ac(a2-3)Gal(b1-3)GlcNAc(b1-3)Gal(b1-4)GlcNAc
# In short: as §1
# [14] = target: Neu5Ac(a2-3)Gal(b1-3)GlcNAc(b1-3)GalNAc
# In short: as §1
# [15] = target: Neu5Ac(a2-3)Gal(b1-3)GlcNAc(b1-6)GalNAc
# In short: as §1
# [16] = target: Neu5Ac(a2-3)Gal(b1-3)GlcNAc6S
# In short: as §1
# [17] = target: Neu5Ac(a2-3)Gal(b1-3)[Fuc(a1-4)]GlcNAc
# In short: as §1
# [18] = target: Neu5Ac(a2-3)Gal(b1-3)[Fuc(a1-4)]GlcNAc(b1-3)Gal(b1-3)[Fuc(a1-4)]GlcNAc
# In short: as §1
# [19] = target: Neu5Ac(a2-3)Gal(b1-3)[Fuc(a1-4)]GlcNAc(b1-3)Gal(b1-4)[Fuc(a1-3)]GlcNAc
# In short: as §1
# [20] = target: Neu5Ac(a2-3)Gal(b1-3)[Neu5Ac(a2-3)Gal(b1-4)]GlcNAc
# In short: as §1
# [21] = target: Neu5Ac(a2-3)Gal(b1-3)[Neu5Ac(a2-6)]GalNAc
# In short: as §1
# [22] = target: Neu5Ac(a2-3)Gal(b1-3)[Neu5Ac(a2-6)]GlcNAc(b1-3)[Fuc(a1-3)[Gal(b1-4)]GlcNAc(b1-6)]Gal(b1-4)Glc
# In short: as §1
# Neu5Ac(a2-3)Gal(b1-4)Glc = target: Neu5Ac(a2-3)Gal(b1-4)Glc
# In short: as §1
# [23] = target: Neu5Ac(a2-3)Gal(b1-4)GlcNAc
# In short: as §1
# [24] = target: Neu5Ac(a2-3)Gal(b1-4)GlcNAc(b1-2)Man
# In short: as §1
# [25] = target: Neu5Ac(a2-3)Gal(b1-4)GlcNAc(b1-2)Man(a1-3)[GlcNAc(b1-2)Man(b1-4)GlcNAc(b1-2)Man(a1-6)]Man(b1-4)GlcNAc(b1-4)GlcNAc
# In short: as §1
# [26] = target: Neu5Ac(a2-3)Gal(b1-4)GlcNAc(b1-2)Man(a1-3)[Neu5Ac(a2-3)Gal(b1-4)GlcNAc(b1-2)Man(a1-6)]Man(b1-4)GlcNAc(b1-4)[Fuc(a1-6)]GlcNAc
# In short: as §1
# [27] = target: Neu5Ac(a2-3)Gal(b1-4)GlcNAc(b1-2)Man(a1-3)[Neu5Ac(a2-6)Gal(b1-4)GlcNAc(b1-2)Man(a1-6)]Man(b1-4)GlcNAc(b1-4)GlcNAc
# In short: as §1
# [28] = target: Neu5Ac(a2-3)Gal(b1-4)GlcNAc(b1-2)[Neu5Ac(a2-3)Gal(b1-4)GlcNAc(b1-6)]Man(a1-6)[Neu5Ac(a2-3)Gal(b1-4)GlcNAc(b1-2)Man(a1-3)]Man(b1-4)GlcNAc(b1-4)GlcNAc
# In short: as §1
# [29] = target: Neu5Ac(a2-3)Gal(b1-4)GlcNAc(b1-3)Gal
# In short: as §1
# [30] = target: Neu5Ac(a2-3)Gal(b1-4)GlcNAc(b1-3)Gal(b1-3)GlcNAc
# In short: as §1
# [31] = target: Neu5Ac(a2-3)Gal(b1-4)GlcNAc(b1-3)Gal(b1-4)GlcNAc
# In short: as §1
# [32] = target: Neu5Ac(a2-3)Gal(b1-4)GlcNAc(b1-3)Gal(b1-4)GlcNAc(b1-3)Gal(b1-4)GlcNAc
# In short: as §1
binder,measurement,setting,value
B1,glycan array binding signal (z-score),[1],-0.322
same,glycan array binding signal (z-score),[2],2.9
same,glycan array binding signal (z-score),[3],5.03
same,glycan array binding signal (z-score),[4],4.02
same,glycan array binding signal (z-score),Man(a1-6)Man,-0.344
same,glycan array binding signal (z-score),Man(b1-4)GlcNAc,-0.338
same,glycan array binding signal (z-score),Neu5Ac(a2-3)Gal,-0.344
same,glycan array binding signal (z-score),[5],-0.343
same,glycan array binding signal (z-score),[6],-0.342
same,glycan array binding signal (z-score),[7],-0.336
same,glycan array binding signal (z-score),[8],-0.332
same,glycan array binding signal (z-score),[9],-0.342
same,glycan array binding signal (z-score),[10],-0.331
same,glycan array binding signal (z-score),[11],0.445
same,glycan array binding signal (z-score),[12],-0.332
same,glycan array binding signal (z-score),[13],-0.339
same,glycan array binding signal (z-score),[14],-0.338
same,glycan array binding signal (z-score),[15],-0.299
same,glycan array binding signal (z-score),[16],-0.34
same,glycan array binding signal (z-score),[17],-0.337
same,glycan array binding signal (z-score),[18],-0.328
same,glycan array binding signal (z-score),[19],-0.319
same,glycan array binding signal (z-score),[20],-0.344
same,glycan array binding signal (z-score),[21],-0.271
same,glycan array binding signal (z-score),[22],-0.329
same,glycan array binding signal (z-score),Neu5Ac(a2-3)Gal(b1-4)Glc,-0.331
same,glycan array binding signal (z-score),[23],-0.342
same,glycan array binding signal (z-score),[24],-0.286
same,glycan array binding signal (z-score),[25],2.99
same,glycan array binding signal (z-score),[26],1.34
same,glycan array binding signal (z-score),[27],2.56
same,glycan array binding signal (z-score),[28],0.705
same,glycan array binding signal (z-score),[29],-0.34
same,glycan array binding signal (z-score),[30],-0.325
same,glycan array binding signal (z-score),[31],-0.342
same,glycan array binding signal (z-score),[32],-0.342
